# Laboratory results published in publication PMC11995724, “Antibiotic target discovery by integrated phenotypic and activity-based profiling of electrophilic fragments” (Cell chemical biology, 2025).
# Screen size: about 3,200 compounds; about 75 (2%) showed an effect of 50% or more. The list shows a part of the results.
# Tested on: T1, S. aureus MSSA476
# T1 construct: MSSA476
# Design: species or system S. aureus MSSA476 (TSB) or V. cholerae SAD30 (LB); 384-well bacterial growth screen at 25 uM, OD600 relative to DMSO control
# Details: relative growth, OD600, TSB; 25 µM; inhibitor
row,Compound,% of control remaining [%]
1,"CC(Cl)C(=O)Nc1ccc(C(=O)N(C)C2CCCN(C)C2)cc1 (stereo not shown) [7-I20, 4-(2-chloropropanamido)-N-methyl-N-(1-methylpiperidin-3-yl)benzamide]",87.9121
2,"C=CC(=O)N1CCNC(=O)C1Cc1nc2ccccc2o1 (stereo not shown) [1-B20, 3-[(1,3-benzoxazol-2-yl)methyl]-4-(prop-2-enoyl)piperazin-2-one]",119.209
3,"CC(C)Oc1ccc(C=C(C#N)C(=O)NC2CCCC2)cc1 [8-O10, 2-cyano-N-cyclopentyl-3-[4-(propan-2-yloxy)phenyl]prop-2-enamide]",92.2822
4,"CC(Cl)C(=O)N(c1ccccc1)C1CCOC1 (stereo not shown) [7-G14, 2-chloro-N-(oxolan-3-yl)-N-phenylpropanamide]",106.75
5,"CC(CNC(=O)C(C)Cl)Oc1cccc(Cl)c1 (stereo not shown) [6-F13, 2-chloro-N-[2-(3-chlorophenoxy)propyl]propanamide]",94.2439
6,"C=CC(=O)N1CCC(C(=O)N2CCC(C(=O)NC3CC3)CC2)CC1 [2-D10, N-cyclopropyl-1-[1-(prop-2-enoyl)piperidine-4-carbonyl]piperidine-4-carboxamide]",106.527
7,"COc1ccccc1N1C(=O)C=CC1=O [10-O10, 1-(2-methoxyphenyl)-2,5-dihydro-1H-pyrrole-2,5-dione]",118.438
8,"CCOc1ccccc1NC(=O)C(C)Cl (stereo not shown) [6-M10, 2-chloro-N-(2-ethoxyphenyl)propanamide]",106.195
9,"O=C(CCl)Nc1c(Cl)c(Cl)cc(Cl)c1Cl [4-O16, 2-chloro-N-(2,3,5,6-tetrachlorophenyl)acetamide]",99.4759
10,"C=CC(=O)N(Cc1c(C)cccc1C)C1CCc2nc(C)nn2C1 (stereo not shown) [1-B11, N-[(2,6-dimethylphenyl)methyl]-N-{2-methyl-5H,6H,7H,8H-[1,2,4]triazolo[1,5-a]pyridin-6-yl}prop-2-enamide]",109.011
11,"CC(C)n1cc(C2=CCCN(C(=O)CCl)CC2)nn1 [5-F05, 2-chloro-1-{4-[1-(propan-2-yl)-1H-1,2,3-triazol-4-yl]-2,3,6,7-tetrahydro-1H-azepin-1-yl}ethan-1-one]",83.4244
12,"C=CC(=O)N(Cc1ccccc1)C1CCOc2ccc(OC)cc21 (stereo not shown) [1-O17, N-benzyl-N-(6-methoxy-3,4-dihydro-2H-1-benzopyran-4-yl)prop-2-enamide]",97.4066
13,"CC(Cl)C(=O)NC(C)(C)c1ccc(F)cc1F (stereo not shown) [6-E21, 2-chloro-N-[2-(2,4-difluorophenyl)propan-2-yl]propanamide]",91.8537
14,"CC(Cl)C(=O)N(Cc1nc(C2CCCCCC2)no1)C1CC1 (stereo not shown) [7-E05, 2-chloro-N-[(3-cycloheptyl-1,2,4-oxadiazol-5-yl)methyl]-N-cyclopropylpropanamide]",87.5981
15,"COc1cccc(NC(=O)C(C)Cl)c1 (stereo not shown) [6-I03, 2-chloro-N-(3-methoxyphenyl)propanamide]",104.146
16,"Cl.O=C(CCl)NC(c1ccccc1)C1CC1c1ccncc1 (stereo not shown) [7-F03, 2-chloro-N-{phenyl[2-(pyridin-4-yl)cyclopropyl]methyl}acetamide hydrochloride]",99.843
17,"N#CC(=Cc1ccc([N+](=O)[O-])c(Cl)c1)C(=O)NCc1ccccc1 [8-D08, N-benzyl-3-(3-chloro-4-nitrophenyl)-2-cyanoprop-2-enamide]",72.0332
18,"C=CC(=O)N(CC)Cc1cccc2c1OCO2 [3-I05, N-[(1,3-dioxaindan-4-yl)methyl]-N-ethylprop-2-enamide]",107.967
19,"CC(Cl)C(=O)NCc1ccc(C(=O)Nc2ccc(F)cc2)cc1 (stereo not shown) [7-G19, 4-[(2-chloropropanamido)methyl]-N-(4-fluorophenyl)benzamide]",94.8195
20,"CC(Cl)C(=O)Nc1sc2c(c1C(N)=O)CCC2 (stereo not shown) [6-A21, 2-(2-chloropropanamido)-4H,5H,6H-cyclopenta[b]thiophene-3-carboxamide]",103.122
21,"COc1cc(C=C(C#N)C(N)=O)ccc1OC(F)F [8-P08, 2-cyano-3-[4-(difluoromethoxy)-3-methoxyphenyl]prop-2-enamide]",117.842
22,"Cn1nnc(CN(C(=O)CCl)C2CCCCCCC2)n1 [5-A16, 2-chloro-N-cyclooctyl-N-[(2-methyl-2H-1,2,3,4-tetrazol-5-yl)methyl]acetamide]",100.182
23,"C=CC(=O)N(Cc1cccc(F)c1F)C1CCCC(F)(F)C1 (stereo not shown) [1-N13, N-(3,3-difluorocyclohexyl)-N-[(2,3-difluorophenyl)methyl]prop-2-enamide]",101.626

row,Compound,% of control remaining [%]
1,"COc1ccc(NC(=O)C(C#N)=Cc2cccs2)cc1 [8-O14, 2-cyano-N-(4-methoxyphenyl)-3-(thiophen-2-yl)prop-2-enamide]",106.224
2,"Cc1cc(C2(NC(=O)C(C)Cl)CCOCC2)on1 (stereo not shown) [7-O13, 2-chloro-N-[4-(3-methyl-1,2-oxazol-5-yl)oxan-4-yl]propanamide]",97.0173
3,"CC(Cl)C(=O)NCc1cc(-c2ccccc2)on1 (stereo not shown) [7-A13, 2-chloro-N-[(5-phenyl-1,2-oxazol-3-yl)methyl]propanamide]",75.0392
4,"O=C(CCl)N(Cc1ccc(F)cc1)C12CC3CC(CC(C3)C1)C2 [4-B11, N-(adamantan-1-yl)-2-chloro-N-[(4-fluorophenyl)methyl]acetamide]",110.91
5,"CC(C)NC(=O)C(C#N)=Cc1ccccc1Cl [9-A09, 3-(2-chlorophenyl)-2-cyano-N-(propan-2-yl)prop-2-enamide]",86.5918
6,"O=C(CCl)NCCCN1CCCCCC1=O [5-J10, 2-chloro-N-[3-(2-oxoazepan-1-yl)propyl]acetamide]",112.204
7,"COC1(CNC(=O)CCl)CCC(C(F)F)CC1 (stereo not shown) [6-D21, 2-chloro-N-{[4-(difluoromethyl)-1-methoxycyclohexyl]methyl}acetamide]",96.6341
8,"CC(Cl)C(=O)NC1CCc2cc(C#N)ccc21 (stereo not shown) [5-N17, 2-chloro-N-(5-cyano-2,3-dihydro-1H-inden-1-yl)propanamide]",93.9891
9,"CC(=O)Nc1ccc(C=C(C#N)C(=O)NCc2ccccc2)cc1 [8-D12, N-benzyl-2-cyano-3-(4-acetamidophenyl)prop-2-enamide]",109.212
10,"O=C(CCl)c1ccc(O)cc1O [10-C14, 2-chloro-1-(2,4-dihydroxyphenyl)ethan-1-one]",119.687
11,"CC(Cl)C(=O)Nc1cccc(C(F)(F)F)c1 (stereo not shown) [5-P14, 2-chloro-N-[3-(trifluoromethyl)phenyl]propanamide]",118.033
12,"C=CC(=O)NC1CC(CC(F)(F)F)C1 (stereo not shown) [2-F09, N-[3-(2,2,2-trifluoroethyl)cyclobutyl]prop-2-enamide]",107.92
13,"Cc1cc(Cl)ccc1OC(C)C(=O)N1CCSSCC1 (stereo not shown) [10-J21, 2-(4-chloro-2-methylphenoxy)-1-(1,2,5-dithiazepan-5-yl)propan-1-one]",122.188
14,"CC(Cl)C(=O)NCC1CCCCN1C(=O)C(F)(F)F (stereo not shown) [7-K13, 2-chloro-N-{[1-(2,2,2-trifluoroacetyl)piperidin-2-yl]methyl}propanamide]",106.75
15,"CC(Cl)C(=O)N1CCC(Cc2ccncc2)C1 (stereo not shown) [6-N11, 2-chloro-1-{3-[(pyridin-4-yl)methyl]pyrrolidin-1-yl}propan-1-one]",86.0488
16,"CCCCNC(=O)C(C#N)=Cc1ccc2c(c1)OCCO2 [9-G11, N-butyl-2-cyano-3-(2,3-dihydro-1,4-benzodioxin-6-yl)prop-2-enamide]",84.1948
17,"C=CC(=O)N1CCC(OC2CCCC2)CC1 [1-L07, 1-[4-(cyclopentyloxy)piperidin-1-yl]prop-2-en-1-one]",116.747
18,"COc1c(Cl)cc(Cl)cc1C=C(C#N)C(N)=O [9-M13, 2-cyano-3-(3,5-dichloro-2-methoxyphenyl)prop-2-enamide]",110.861
19,"C=CC(=O)NC(c1noc(O)n1)C(C)(C)C (stereo not shown) [2-C14, N-[1-(5-hydroxy-1,2,4-oxadiazol-3-yl)-2,2-dimethylpropyl]prop-2-enamide]",138.555
20,"C=CC(=O)NCCNC(=O)c1cc2ccccc2[nH]1 [3-B21, N-{2-[(1H-indol-2-yl)formamido]ethyl}prop-2-enamide]",126.774
21,"CC(Cl)C(=O)C=C1N(C)c2ccccc2C1(C)C (stereo not shown) [10-J22, 3-chloro-1-(1,3,3-trimethyl-2,3-dihydro-1H-indol-2-ylidene)butan-2-one]",134.063
22,"CC(Cl)C(=O)N1C2CCC1CC(N(C)C(=O)c1ccccc1)C2 (stereo not shown) [6-L14, N-[8-(2-chloropropanoyl)-8-azabicyclo[3.2.1]octan-3-yl]-N-methylbenzamide]",93.9024
23,"CSc1ccccc1NC(=O)CN(C)C(=O)CCl [4-L03, 2-chloro-N-methyl-N-({[2-(methylsulfanyl)phenyl]carbamoyl}methyl)acetamide]",83.0872
